Data published in patent US11261211B2, “19-NOR neuroactive steroids and methods of use thereof” (Sage Therapeutics, Inc., priority 2013, dated 2022).
pIC50: −log10 of the molar value. At least one structure is not confirmed: it was looked up by name or label, or the drawing left a doubt.

The compounds below were run against rat brain cortical membranes ([35S]-TBPS binding, GABA receptor complex) (assay: Steroid inhibition of [35S]-TBPS binding). Conditions: 3 nM [35S]-TBPS, in the presence of 5 μM GABA.
Procedure: TBPS binding assays using rat brain cortical membranes in the presence of 5 μM GABA has been described (Gee et al, J. Pharmacol. Exp. Ther. 1987, 241, 346-353; Hawkinson et al, Mol. Pharmacol. 1994, 46, 977-985; Lewin, A. H et al., Mol. Pharmacol. 1989, 35, 189-194).
Briefly, cortices are rapidly removed following decapitation of carbon dioxide-anesthetized Sprague-Dawley rats (200-250 g). The cortices are homogenized in 10 volumes of ice-cold 0.32 M sucrose using a glass/teflon homogenizer and centrifuged at 1500×g for 10 min at 4° C. The resultant supernatants are centrifuged at 10,000×g for 20 min at 4° C. to obtain the P2 pellets. The P2 pellets are resuspended in 200 mM NaCl/50 mM Na-K phosphate pH 7.4 buffer and centrifuged at 10,000×g for 10 min at 4° C. This washing procedure is repeated twice and the pellets are resuspended in 10 volumes of buffer. Aliquots (100 μL) of the membrane suspensions are incubated with 3 nM [^35S]-TBPS and 5 μL aliquots of test drug dissolved in dimethyl sulfoxide (DMSO) (final 0.5%) in the presence of 5 μM GABA. The incubation is brought to a final volume of 1.0 mL with buffer. […] Following a 90 min incubation at room temp, the assays are terminated by filtration through glass fiber filters (Schleicher and Schuell No. 32) using a cell harvester (Brandel) and rinsed three times with ice-cold buffer. Filter bound radioactivity is measured by liquid scintillation spectrometry. Non-linear curve fitting of the overall data for each drug averaged for each concentration is done using Prism (GraphPad).
Various compounds are or can be screened to determine their potential as modulators of [^35S]-TBPS binding in vitro. These assays are or can be performed in accordance with the above discussed procedures.

How did the pIC50 turn out when `CC[C@@]1(O)CC[C@H]2[C@H](CC[C@@H]3[C@@H]2CC[C@]2(C)[C@@H](C(=O)Cn4nnc5ccc(F)cc54)CC[C@@H]32)C1` [SA-108] was run?
Its pIC50 is less than 6.30.

How did the pIC50 turn out when `COC[C@@]1(O)CC[C@H]2[C@H](CC[C@@H]3[C@@H]2CC[C@]2(C)[C@@H](C(=O)Cn4nnc5cc(F)ccc54)CC[C@@H]32)C1` [SA-120] was run?
Its pIC50 is less than 6.30.

With `COC[C@@]1(O)CC[C@H]2[C@H](CC[C@@H]3[C@@H]2CC[C@]2(C)[C@@H](C(=O)Cn4nnc5ccc(F)cc54)CC[C@@H]32)C1` [SA-121] as the compound, how does the pIC50 read?
Its pIC50 is less than 6.30.

With `CCOC[C@@]1(O)CC[C@H]2[C@H](CC[C@@H]3[C@@H]2CC[C@]2(C)[C@@H](C(=O)Cn4nnc5cc(F)ccc54)CC[C@@H]32)C1` [SA-126] as the compound, how does the pIC50 read?
The pIC50 was 6.30 to 7.00.

How did the pIC50 turn out when `CCOC[C@@]1(O)CC[C@H]2[C@H](CC[C@@H]3[C@@H]2CC[C@]2(C)[C@@H](C(=O)Cn4nnc5ccc(F)cc54)CC[C@@H]32)C1` [SA-127] was run?
The pIC50 was 6.30 to 7.00.

`CCOC[C@@]1(O)CC[C@H]2[C@H](CC[C@@H]3[C@@H]2CC[C@]2(C)[C@@H](C(=O)Cn4nc5ccc(F)cc5n4)CC[C@@H]32)C1` [SA-128] was tested. Which pIC50 did it give?
The pIC50 was 7.00 to 7.30.

How did the pIC50 turn out when `C[C@@]1(O)CC[C@H]2[C@@H](CC[C@@H]3[C@@H]2CC[C@]2(C)[C@@H](C(=O)Cn4nnc5ccccc54)CC[C@@H]32)C1` [SB-1] was run?
The pIC50 was 7.00 to 7.30.

With `C[C@@]1(O)CC[C@H]2[C@@H](CC[C@@H]3[C@@H]2CC[C@]2(C)[C@@H](C(=O)Cn4nc5ccccc5n4)CC[C@@H]32)C1` [SB-2] as the compound, how does the pIC50 read?
Its pIC50 is 7.00 to 7.30.

`C[C@]12CC[C@H]3[C@@H](CC[C@H]4C[C@@](O)(CF)CC[C@@H]43)[C@@H]1CC[C@@H]2C(=O)Cn1nnc2ccccc21` [SB-12] was tested. Which pIC50 did it give?
Its pIC50 is 6.30 to 7.00.

`C[C@]12CC[C@H]3[C@@H](CC[C@H]4C[C@@](O)(CF)CC[C@@H]43)[C@@H]1CC[C@@H]2C(=O)Cn1nc2ccccc2n1` [SB-13] was tested. Which pIC50 did it give?
The pIC50 was 7.00 to 7.30.

`C[C@]12CC[C@H]3[C@@H](CC[C@H]4C[C@@](O)(CF)CC[C@@H]43)[C@@H]1CC[C@@H]2C(=O)Cn1nnc2cnccc21` [SB-14] was tested. Which pIC50 did it give?
Its pIC50 is less than 6.30.

How did the pIC50 turn out when `C[C@]12CC[C@H]3[C@@H](CC[C@H]4C[C@@](O)(CF)CC[C@@H]43)[C@@H]1CC[C@@H]2C(=O)Cn1nc2ccncc2n1` [SB-15] was run?
Its pIC50 is 7.30 to 8.00.

How did the pIC50 turn out when `C[C@]12CC[C@H]3[C@@H](CC[C@H]4C[C@@](O)(CF)CC[C@@H]43)[C@@H]1CC[C@@H]2C(=O)Cn1ncc2ncccc21` [SB-17] was run?
The pIC50 was less than 6.30.

With `C[C@]12CC[C@H]3[C@@H](CC[C@H]4C[C@@](O)(CF)CC[C@@H]43)[C@@H]1CC[C@@H]2C(=O)Cn1nnc2ccncc21` [SB-26] as the compound, how does the pIC50 read?
Its pIC50 is less than 6.30.

How did the pIC50 turn out when `CC[C@@]1(O)CC[C@H]2[C@@H](CC[C@@H]3[C@@H]2CC[C@]2(C)[C@@H](C(=O)Cn4nnc5ccccc54)CC[C@@H]32)C1` [SB-35] was run?
The pIC50 was less than 6.30.

How did the pIC50 turn out when `CC[C@@]1(O)CC[C@H]2[C@@H](CC[C@@H]3[C@@H]2CC[C@]2(C)[C@@H](C(=O)Cn4nnc5cc(F)ccc54)CC[C@@H]32)C1` [SB-37] was run?
Its pIC50 is less than 6.30.

`CC[C@@]1(O)CC[C@H]2[C@@H](CC[C@@H]3[C@@H]2CC[C@]2(C)[C@@H](C(=O)Cn4nnc5ccc(F)cc54)CC[C@@H]32)C1` [SB-38] was tested. Which pIC50 did it give?
The pIC50 was less than 6.30.

How did the pIC50 turn out when `CC[C@@]1(O)CC[C@H]2[C@@H](CC[C@@H]3[C@@H]2CC[C@]2(C)[C@@H](C(=O)Cn4nc5ccc(F)cc5n4)CC[C@@H]32)C1` [SB-39] was run?
The pIC50 was 6.30 to 7.00.

With `COC[C@@]1(O)CC[C@H]2[C@@H](CC[C@@H]3[C@@H]2CC[C@]2(C)[C@@H](C(=O)Cn4nnc5ccc(F)cc54)CC[C@@H]32)C1` [SB-40] as the compound, how does the pIC50 read?
Its pIC50 is 6.30 to 7.00.

With `COC[C@@]1(O)CC[C@H]2[C@@H](CC[C@@H]3[C@@H]2CC[C@]2(C)[C@@H](C(=O)Cn4nc5ccc(F)cc5n4)CC[C@@H]32)C1` [SB-41] as the compound, how does the pIC50 read?
The pIC50 was less than 6.30.

With `COC[C@@]1(O)CC[C@H]2[C@@H](CC[C@@H]3[C@@H]2CC[C@]2(C)[C@@H](C(=O)Cn4cc5ccncc5n4)CC[C@@H]32)C1` [SB-45] as the compound, how does the pIC50 read?
Its pIC50 is 7.30 to 8.00.

`COC[C@@]1(O)CC[C@H]2[C@@H](CC[C@@H]3[C@@H]2CC[C@]2(C)[C@@H](C(=O)Cn4ncc5ccncc54)CC[C@@H]32)C1` [SB-46] was tested. Which pIC50 did it give?
The pIC50 was 7.00 to 7.30.

`COC[C@@]1(O)CC[C@H]2[C@@H](CC[C@@H]3[C@@H]2CC[C@]2(C)[C@@H](C(=O)Cn4nnc5ccccc54)CC[C@@H]32)C1` [SB-49] was tested. Which pIC50 did it give?
Its pIC50 is 7.30 to 8.00.

How did the pIC50 turn out when `COC[C@@]1(O)CC[C@H]2[C@@H](CC[C@@H]3[C@@H]2CC[C@]2(C)[C@@H](C(=O)Cn4nc5ccccc5n4)CC[C@@H]32)C1` [SB-50] was run?
Its pIC50 is 7.30 to 8.00.

How did the pIC50 turn out when `CCOC[C@@]1(O)CC[C@H]2[C@@H](CC[C@@H]3[C@@H]2CC[C@]2(C)[C@@H](C(=O)Cn4nc5ccccc5n4)CC[C@@H]32)C1` [SB-53] was run?
Its pIC50 is less than 6.30.

`CCOC[C@@]1(O)CC[C@H]2[C@@H](CC[C@@H]3[C@@H]2CC[C@]2(C)[C@@H](C(=O)Cn4ncc5ccncc54)CC[C@@H]32)C1` [SB-56] was tested. Which pIC50 did it give?
The pIC50 was less than 6.30.

With `CCOC[C@@]1(O)CC[C@H]2[C@@H](CC[C@@H]3[C@@H]2CC[C@]2(C)[C@@H](C(=O)Cn4nc5ccc(F)cc5n4)CC[C@@H]32)C1` [SB-60] as the compound, how does the pIC50 read?
The pIC50 was less than 6.30.

With `COc1ccc2nn(CC(=O)[C@H]3CC[C@H]4[C@@H]5CC[C@H]6C[C@@](O)(CF)CC[C@@H]6[C@H]5CC[C@]34C)nc2c1` [SG-21] as the compound, how does the pIC50 read?
Its pIC50 is 6.30 to 7.00.

With `COc1ccc2c(c1)nnn2CC(=O)[C@H]1CC[C@H]2[C@@H]3CC[C@H]4C[C@@](O)(CF)CC[C@@H]4[C@H]3CC[C@]12C` [SG-23] as the compound, how does the pIC50 read?
The pIC50 was 6.30 to 7.00.

`C[C@]12CC[C@H]3[C@@H](CC[C@H]4C[C@@](O)(CF)CC[C@@H]43)[C@@H]1CC[C@@H]2C(=O)Cn1nnc2ccc(F)cc21` [SG-25] was tested. Which pIC50 did it give?
The pIC50 was less than 6.30.
